# Laboratory results taken from the supplement of paper PMC8728848.
# The other results are listed elsewhere or left out.
# B1: Banana lectin (Musa acuminata) (protein)
# chain: MNGAIKVGAWGGNGGSAFDMGPAYRIISVKIFSGDVVDGVDVTFTYYGKTETRHYGGSGGTPHEIVLQEGEYLVGMAGEVANYHGAVVLGKLGFSTNKKAYGPFGNTGGTPFSLPIAAGKISGFFGRGGKFLDAIGVYLEPLEHHHHHH
# Experiments:
# Assay in all cases: glycan array binding signal (z-score within array); higher = stronger binding
# Settings in all cases: glycan notation: IUPAC condensed, linker removed
# [1] = target: GlcNAc(b1-4)GlcNAc
# Outline: (§1)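 Glycan array data came from 3228 arrays in the Consortium for Functional Glycomics database, and only arrays with an available protein sequence were kept. Glycan names were put into IUPAC-condensed notation, and columns mapping to the same glycan were averaged. The binding signal is a within-array Z-score, averaged across arrays of one protein sequence run at different concentrations or buffers and across linkers. A negative Z-score can be read as non-binding.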
# [2] = target: GlcNAc(b1-4)GlcNAc(b1-4)GlcNAc
# Outline: as §1
# [3] = target: GlcNAc(b1-4)GlcNAc(b1-4)GlcNAc(b1-4)GlcNAc(b1-4)GlcNAc
# Outline: as §1
# [4] = target: GlcNAc(b1-4)GlcNAc(b1-4)GlcNAc(b1-4)GlcNAc(b1-4)GlcNAc(b1-4)GlcNAc
# Outline: as §1
# [5] = target: GlcNAc(b1-4)[GlcNAc(b1-6)]GalNAc
# Outline: as §1
# [6] = target: GlcNAc(b1-6)Gal(b1-4)GlcNAc
# Outline: as §1
# [7] = target: GlcNAc(b1-6)GalNAc
# Outline: as §1
# [8] = target: GlcNAc6S(b1-3)Gal(b1-4)GlcNAc
# Outline: as §1
# [9] = target: HexA(a1-3)GalNAc4S(b1-4)GlcA(b1-3)GalNAc4S(b1-4)GlcA(b1-3)GalNAc4S(b1-4)GlcA(b1-3)GalNAc4S(b1-4)GlcA(b1-3)GalNAc4S(b1-4)GlcA(b1-3)GalNAc4S(b1-4)GlcA(b1-3)GalNAc4S(b1-4)GlcA(b1-3)GalNAc4S
# Outline: as §1
# [10] = target: HexA(a1-3)GalNAc4S(b1-4)IdoA(a1-3)GalNAc4S(b1-4)IdoA(a1-3)GalNAc4S(b1-4)IdoA(a1-3)GalNAc4S(b1-4)IdoA(a1-3)GalNAc4S(b1-4)IdoA(a1-3)GalNAc4S(b1-4)IdoA(a1-3)GalNAc4S(b1-4)IdoA(a1-3)GalNAc4S
# Outline: as §1
# [11] = target: HexA(a1-3)GalNAc6S(b1-4)GlcA(b1-3)GalNAc6S(b1-4)GlcA(b1-3)GalNAc6S(b1-4)GlcA(b1-3)GalNAc6S(b1-4)GlcA(b1-3)GalNAc6S(b1-4)GlcA(b1-3)GalNAc6S(b1-4)GlcA(b1-3)GalNAc6S(b1-4)GlcA(b1-3)GalNAc6S
# Outline: as §1
# [12] = target: HexA2S(a1-4)GlcNS6S(a1-4)IdoA2S(a1-4)GlcNS6S(a1-4)IdoA2S(a1-4)GlcNS6S(a1-4)IdoA2S(a1-4)GlcNS6S(a1-4)IdoA2S(a1-4)GlcNS6S(a1-4)IdoA2S(a1-4)GlcNS6S(a1-4)IdoA2S(a1-4)GlcNS6S(a1-4)IdoA2S(a1-4)GlcNS6S(a1-4)IdoA2S
# Outline: as §1
# [13] = target: Kdn(a2-3)Gal(b1-3)GalNAc
# Outline: as §1
# [14] = target: Kdn(a2-3)Gal(b1-3)GlcNAc
# Outline: as §1
# [15] = target: Kdn(a2-3)Gal(b1-4)Glc
# Outline: as §1
# [16] = target: Kdn(a2-3)Gal(b1-4)GlcNAc
# Outline: as §1
# [17] = target: Kdn(a2-3)Gal(b1-4)[Fuc(a1-3)]GlcNAc
# Outline: as §1
# [18] = target: Kdn(a2-6)Gal(b1-4)GlcNAc
# Outline: as §1
# [19] = target: Man(a1-2)Man
# Outline: as §1
# [20] = target: Man(a1-2)Man(a1-2)Man(a1-3)Man
# Outline: as §1
# [21] = target: Man(a1-2)Man(a1-2)Man(a1-3)[Man(a1-2)Man(a1-3)[Man(a1-2)Man(a1-6)]Man(a1-6)]Man(b1-4)GlcNAc(b1-4)GlcNAc
# Outline: as §1
# [22] = target: Man(a1-2)Man(a1-2)Man(a1-3)[Man(a1-2)Man(a1-6)[Man(a1-3)]Man(a1-6)]Man(b1-4)GlcNAc(b1-4)GlcNAc
# Outline: as §1
# [23] = target: Man(a1-2)Man(a1-2)Man(a1-3)[Man(a1-3)[Man(a1-6)]Man(a1-6)]Man(b1-4)GlcNAc(b1-4)GlcNAc
# Outline: as §1
# [24] = target: Man(a1-2)Man(a1-2)Man(a1-6)[Man(a1-3)]Man
# Outline: as §1
# [25] = target: Man(a1-2)Man(a1-3)Man
# Outline: as §1
# [26] = target: Man(a1-2)Man(a1-3)[Man(a1-2)Man(a1-6)[Man(a1-3)]Man(a1-6)]Man(b1-4)GlcNAc(b1-4)GlcNAc
# Outline: as §1
# [27] = target: Man(a1-2)Man(a1-3)[Man(a1-2)Man(a1-6)]Man
# Outline: as §1
# [28] = target: Man(a1-2)Man(a1-3)[Man(a1-2)Man(a1-6)]Man(a1-6)[Man(a1-2)Man(a1-2)Man(a1-3)]Man
# Outline: as §1
# [29] = target: Man(a1-2)Man(a1-3)[Man(a1-2)Man(a1-6)]Man(a1-6)[Man(a1-2)Man(a1-2)Man(a1-3)]Man(b1-4)GlcNAc(b1-4)GlcNAc
# Outline: as §1
# [30] = target: Man(a1-2)Man(a1-3)[Man(a1-3)[Man(a1-6)]Man(a1-6)]Man(b1-4)GlcNAc(b1-4)GlcNAc
# Outline: as §1
# [31] = target: Man(a1-2)Man(a1-3)[Man(a1-6)]Man(a1-6)[Man(a1-2)Man(a1-3)]Man(b1-4)GlcNAc(b1-4)GlcNAc
# Outline: as §1
# [32] = target: Man(a1-2)Man(a1-6)[Man(a1-3)]Man(a1-6)[Man(a1-2)Man(a1-2)Man(a1-3)]Man
# Outline: as §1
# [33] = target: Man(a1-2)Man(a1-6)[Man(a1-3)]Man(a1-6)[Man(a1-2)Man(a1-2)Man(a1-3)]Man(b1-4)GlcNAc(b1-4)GlcNAc
# Outline: as §1
# [34] = target: Man(a1-3)Man
# Outline: as §1
# [35] = target: Man(a1-3)Man(a1-6)[Man(a1-3)]Man(b1-4)GlcNAc(b1-4)GlcNAc
# Outline: as §1
# [36] = target: Man(a1-3)Man(b1-4)GlcNAc
# Outline: as §1
# [37] = target: Man(a1-3)[Man(a1-6)]Man
# Outline: as §1
# [38] = target: Man(a1-3)[Man(a1-6)]Man(a1-6)Man(b1-4)GlcNAc(b1-4)GlcNAc
# Outline: as §1
# [39] = target: Man(a1-3)[Man(a1-6)]Man(a1-6)[Man(a1-2)Man(a1-3)]Man(b1-4)GlcNAc(b1-4)GlcNAc
# Outline: as §1
# [40] = target: Man(a1-3)[Man(a1-6)]Man(a1-6)[Man(a1-3)]Man
# Outline: as §1
# [41] = target: Man(a1-3)[Man(a1-6)]Man(a1-6)[Man(a1-3)]Man(b1-4)GlcNAc(b1-4)GlcNAc
# Outline: as §1
# [42] = target: Man(a1-3)[Man(a1-6)]Man(b1-4)GlcNAc(b1-4)GlcNAc
# Outline: as §1
# [43] = target: Man(a1-3)[Man(a1-6)]Man(b1-4)GlcNAc(b1-4)[Fuc(a1-6)]GlcNAc
# Outline: as §1
# [44] = target: Man(a1-6)Man
# Outline: as §1
# [45] = target: Man(a1-6)Man(b1-4)GlcNAc(b1-4)GlcNAc
# Outline: as §1
binder,measurement,setting,value
B1,glycan array binding signal (z-score),[1],-0.201
same,glycan array binding signal (z-score),[2],-0.259
same,glycan array binding signal (z-score),[3],-0.211
same,glycan array binding signal (z-score),[4],-0.209
same,glycan array binding signal (z-score),[5],-0.218
same,glycan array binding signal (z-score),[6],-0.191
same,glycan array binding signal (z-score),[7],-0.228
same,glycan array binding signal (z-score),[8],-0.197
same,glycan array binding signal (z-score),[9],-0.99
same,glycan array binding signal (z-score),[10],-0.99
same,glycan array binding signal (z-score),[11],-0.99
same,glycan array binding signal (z-score),[12],-0.99
same,glycan array binding signal (z-score),[13],-0.211
same,glycan array binding signal (z-score),[14],-0.19
same,glycan array binding signal (z-score),[15],-0.261
same,glycan array binding signal (z-score),[16],-0.203
same,glycan array binding signal (z-score),[17],-0.237
same,glycan array binding signal (z-score),[18],-0.193
same,glycan array binding signal (z-score),[19],-0.865
same,glycan array binding signal (z-score),[20],1.68
same,glycan array binding signal (z-score),[21],1.64
same,glycan array binding signal (z-score),[22],1.78
same,glycan array binding signal (z-score),[23],1.06
same,glycan array binding signal (z-score),[24],6.19
same,glycan array binding signal (z-score),[25],2.25
same,glycan array binding signal (z-score),[26],1.89
same,glycan array binding signal (z-score),[27],4.51
same,glycan array binding signal (z-score),[28],5.96
same,glycan array binding signal (z-score),[29],2.62
same,glycan array binding signal (z-score),[30],0.545
same,glycan array binding signal (z-score),[31],8.11
same,glycan array binding signal (z-score),[32],3.34
same,glycan array binding signal (z-score),[33],6.29
same,glycan array binding signal (z-score),[34],-0.842
same,glycan array binding signal (z-score),[35],0.154
same,glycan array binding signal (z-score),[36],0.062
same,glycan array binding signal (z-score),[37],2.38
same,glycan array binding signal (z-score),[38],0.352
same,glycan array binding signal (z-score),[39],13.1
same,glycan array binding signal (z-score),[40],0.187
same,glycan array binding signal (z-score),[41],2.4
same,glycan array binding signal (z-score),[42],4.01
same,glycan array binding signal (z-score),[43],2.88
same,glycan array binding signal (z-score),[44],0.36
same,glycan array binding signal (z-score),[45],0.917
